Assay results published in the supplement of paper PMC8291772.
± gives the standard error. Some of the results follow.

The sequences below were run against terminal deoxynucleotidyl transferase (calf thymus) (UniProt P06526) (assay: TdT poly-dT extension signal (Cy3 hybridisation fluorescence, uncapped minus capped) (fluorescence a.u.); higher = more efficient initiation of TdT extension). Conditions: initiator chemistry: L-DNA (mirror-image), free 5'-OH (3'-tethered via HEG linker).
Procedure: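 All mono- to pentamer D-DNA or L-DNA initiators were made by forward (3'->5') photolithographic in situ synthesis on glass on a hexaethylene glycol linker, leaving a free 5'-OH. Each was made in uncapped and DMTr-dT-capped versions, about 11 replicates each. Arrays were extended with calf thymus TdT (0.2 U/uL), 100 uM dTTP and 0.25 mM CoCl2 for 120 min at 37 C, hybridised with an rA18-Cy3 probe and scanned at 532 nm. The value is the mean uncapped minus the mean capped signal. IDs read 5'->3'. L-DNA is mirror-image; D-DNA 5'-OH initiators were below LOD (no extension).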

Sequence of UniProt P06526 (P06526 whole entry): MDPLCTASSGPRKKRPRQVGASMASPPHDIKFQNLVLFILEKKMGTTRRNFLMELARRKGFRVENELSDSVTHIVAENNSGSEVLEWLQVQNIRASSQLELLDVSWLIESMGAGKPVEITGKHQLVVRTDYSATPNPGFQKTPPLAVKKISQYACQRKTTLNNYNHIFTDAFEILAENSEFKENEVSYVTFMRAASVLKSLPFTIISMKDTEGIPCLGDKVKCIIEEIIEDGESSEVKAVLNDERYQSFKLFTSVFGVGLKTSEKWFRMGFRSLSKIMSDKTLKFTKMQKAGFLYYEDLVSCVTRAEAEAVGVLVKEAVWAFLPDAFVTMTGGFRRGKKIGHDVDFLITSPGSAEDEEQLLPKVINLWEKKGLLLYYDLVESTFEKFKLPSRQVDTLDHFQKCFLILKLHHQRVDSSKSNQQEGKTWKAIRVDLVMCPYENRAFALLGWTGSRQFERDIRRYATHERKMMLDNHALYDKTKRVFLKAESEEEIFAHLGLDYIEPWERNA

Sequence | TdT poly-dT extension signal
TGTG | 123 ± 6.1
TCGAT | 152 ± 12
TACCT | 141 ± 10
CCTT | 60.3 ± 10
ATAT | 141 ± 13
TATAG | 204 ± 9
TTGG | 274 ± 21
TAATG | 182 ± 15
CGAAA | 92.7 ± 13
TGACC | 179 ± 15
TTTAG | 345 ± 24
CAGGT | 44 ± 3.9
TACC | 142 ± 18
AGATC | 77 ± 6.2
GAACG | 96.6 ± 7.8
GGAGC | 79.7 ± 6.2
GTTGC | 102 ± 8.8
AATAC | 79 ± 9.3
ACCGA | 89.5 ± 5.2
ATGTT | 124 ± 10
CAACA | 80.2 ± 9
TTGAG | 317 ± 33
TACCC | 155 ± 13
AGCAA | 61.2 ± 5.3

Sequence | TdT poly-dT extension signal
GCAAA | 115 ± 8.9
CGACA | 68.1 ± 4.9
TTTCC | 270 ± 21
AGAAA | 82.7 ± 7.4
ACGGC | 50 ± 6.3
AGTT | 37.4 ± 4.8
GTTC | 116 ± 8.2
CAACG | 76.7 ± 5.5
TTTTA | 302 ± 24
TGGCA | 96.5 ± 7.1
ACACA | 80.3 ± 8.1
TGTCA | 114 ± 7.2
CTGCT | 104 ± 12
AACTG | 74.9 ± 5.8
AGTC | 44.1 ± 8.7
GGCCC | 67.7 ± 6.4
GGAG | 72.5 ± 3.7
ATGT | 106 ± 8.2
GGCG | 75.4 ± 7.1
CAGGC | 52 ± 4.7
AGGG | 47.5 ± 6.5
GCGCC | 64.7 ± 7.3
TTTC | 280 ± 19
GTCCT | 117 ± 9.6

Sequence | TdT poly-dT extension signal
CCAG | 107 ± 9.7
CGAC | 78.8 ± 9.6
CGGTG | 43.7 ± 6.1
TCGGG | 143 ± 7.4
CGGAT | 48.4 ± 7
CATCT | 69.7 ± 4.5
TGGA | 107 ± 8.9
ACTAC | 61.4 ± 8.8
GGACA | 71.4 ± 6.9
GAACC | 55.9 ± 8.8
TCGAG | 160 ± 9.7
TAGCG | 124 ± 12
CTACC | 127 ± 19
AGGAA | 57.1 ± 6.7
ACCCA | 77.1 ± 11
GTATG | 132 ± 13
CTGTG | 139 ± 11
ACAGT | 65.8 ± 8.1
GCTAT | 89.5 ± 6.6
TGGAG | 127 ± 6.7
TCCA | 195 ± 15
GCTAC | 79.9 ± 4.2
CGTTT | 51.4 ± 5
TGTGA | 140 ± 8.8

Sequence | TdT poly-dT extension signal
TATGA | 201 ± 13
TGAGC | 147 ± 8.6
GCGTA | 50.5 ± 5.1
GGAC | 66.7 ± 8.3
GCCGT | 93.1 ± 5.6
ACAGG | 74.5 ± 6.1
GCTAG | 79.5 ± 7.8
ACGCG | 70.6 ± 6.6
GACAC | 91.9 ± 7
GGGCC | 76.3 ± 9.2
GGACT | 76.5 ± 5.1
GAAGG | 96.8 ± 5.2
AATC | 77.5 ± 9.8
TCTAA | 217 ± 6.6
GGTA | 56.5 ± 5.7
AATAG | 95.8 ± 9.6
TATTT | 156 ± 7.3
GCCC | 78.7 ± 9.1
CAGC | 63.5 ± 8.4
CGTAG | 55.2 ± 7
CAGTT | 36.5 ± 5
TTAAA | 563 ± 39
GCTG | 74.1 ± 4
TAGAT | 129 ± 12

Sequence | TdT poly-dT extension signal
CCCCA | 90.6 ± 9.5
CTCT | 116 ± 10
GTGGT | 108 ± 11
TCATG | 177 ± 14
TTGA | 270 ± 19
TTTTT | 282 ± 18
GCGAC | 77.7 ± 4.9
AGGAG | 42.4 ± 5
TCGGA | 148 ± 9.6
GTTCC | 107 ± 11
GTTAA | 194 ± 15
TTAAT | 491 ± 32
AGAGT | 54.1 ± 6.2
ACACT | 72.1 ± 8.9
AAGGT | 41.4 ± 5.3
TCAAG | 211 ± 11
ACTC | 56.8 ± 6.9
GCGGT | 68.6 ± 7.9
ATGTC | 127 ± 12
AAACT | 84.4 ± 6.5
GCGGG | 90.1 ± 8
ATTAT | 152 ± 14
GGATT | 74.9 ± 9.2
TATA | 181 ± 12

Sequence | TdT poly-dT extension signal
TGAGT | 131 ± 9.1
GGGC | 62.9 ± 7.1
ATATT | 201 ± 13
CGTCA | 48.1 ± 5.3
TGCAC | 141 ± 11
GCCAT | 101 ± 8
ATAGG | 198 ± 12
TCCG | 221 ± 19
TTAC | 275 ± 24
GAAAA | 92.8 ± 8
CACT | 62.8 ± 5.1
TACTG | 153 ± 14
CCATC | 82.8 ± 6.9
GACT | 93.3 ± 9.4
CGTAC | 60.9 ± 10
GATAG | 107 ± 6.9
AATGC | 75.1 ± 4.9
GACGG | 117 ± 18
GAAC | 62.2 ± 20
CGAAG | 65 ± 9.1
ATGC | 80.2 ± 14
CGACC | 76.4 ± 8
TGAC | 176 ± 7.7
AATTG | 77.2 ± 7

Sequence | TdT poly-dT extension signal
CGCG | 64.9 ± 6.4
GTAAG | 225 ± 10
ACCT | 60.9 ± 7.7
GATCA | 81.6 ± 7.9
GCAGT | 73.5 ± 5.5
GACGA | 106 ± 8.7
ACCTG | 84 ± 6.2
CGTCG | 45.4 ± 5.4
TAGCT | 99.8 ± 7.7
TAAT | 182 ± 10
CGGGA | 60.8 ± 6.1
TGCCG | 122 ± 9.3
GGAAT | 88.1 ± 5.6
CTTC | 120 ± 9.2
GGCC | 61.3 ± 8.8
GTGCC | 108 ± 5.5
CGGA | 56.1 ± 5.8
CTAGG | 182 ± 8.8
GCCT | 75.9 ± 4.8
GTCCG | 147 ± 12
CGCTC | 48.2 ± 4.3
GGACC | 70.6 ± 4.7
CCGAG | 87.5 ± 7.8
CATAT | 82.7 ± 8.5

Sequence | TdT poly-dT extension signal
AAGC | 53.4 ± 4.2
TAGTT | 96 ± 7.2
ACGG | 64.6 ± 5.5
GCTCC | 67.8 ± 8.8
ATCTT | 145 ± 15
ACAT | 82 ± 8.4
GACGT | 94.7 ± 7.7
CTACT | 152 ± 15
GTGGC | 112 ± 8.7
CCTTG | 71.3 ± 8.8
TGTCC | 108 ± 4.2
ACAG | 82 ± 7.7
CTAGT | 157 ± 12
CACCG | 74.4 ± 8.1
TTACT | 396 ± 14
TGTTT | 120 ± 12
TCCCT | 155 ± 18
GAGTC | 53.7 ± 4.8
CGATG | 73.4 ± 8.6
AGTGG | 52.3 ± 9.2
CAGCT | 41.4 ± 6.6
AATTA | 82.4 ± 8.4
TGGTG | 109 ± 9.7
AGTAT | 48.2 ± 7.1

Sequence | TdT poly-dT extension signal
TGCGG | 142 ± 10
TCTGA | 172 ± 12
TATCA | 160 ± 12
CGCGT | 66.2 ± 5.5
GCGG | 75.5 ± 8.2
AGTTT | 45.4 ± 6
GCCA | 104 ± 8.3
CTGTA | 105 ± 8.6
ATTTG | 156 ± 10
CTGGA | 122 ± 11
ACGCC | 48.2 ± 6.1
CATCG | 72.9 ± 11
AGATA | 53.6 ± 6.9
CAGTA | 25.7 ± 14
CTTCC | 86.1 ± 12
CCTAA | 98.7 ± 6
AAAAG | 101 ± 8.9
GAGAT | 61.7 ± 5.4
